Drawing on article PMC6451091, this text covers binding signal for 30 sequences.

For one test, the target named is PU.1 (IVT) (UniProt P17947). Description: protein-binding microarray (PBM). The settings on record: 20 mM HEPES pH 7.9, 100 mM NaCl, 1 mM DTT, 0.2 mg/mL BSA, 0.02% Triton X-100, 2% milk, 0.4 mg/mL salmon testes DNA; 1 h; temperature not stated; high values mean tight binding; double strand, one strand shown; sequences stand for … in GCCTAGCAC…GTGCTAGGTCTTGATTCGCTTGACGCTGCTG

The target in test [1] is PU.1 (endogenous, THP-1 nuclear extract) (UniProt P17947). Description: nuclear extract protein-binding microarray (nextPBM). The settings on record: 20 mM HEPES pH 7.9, 100 mM NaCl, 1 mM DTT, 0.2 mg/mL BSA, 0.02% Triton X-100, 2% milk, 0.4 mg/mL salmon testes DNA; 1 h; temperature not stated; high values mean tight binding; double strand, one strand shown; sequences stand for … in GCCTAGCAC…GTGCTAGGTCTTGATTCGCTTGACGCTGCTG

Test [2] addresses T1, FLI1 (endogenous, THP-1 nuclear extract) (UniProt Q01543).
T1 sequence: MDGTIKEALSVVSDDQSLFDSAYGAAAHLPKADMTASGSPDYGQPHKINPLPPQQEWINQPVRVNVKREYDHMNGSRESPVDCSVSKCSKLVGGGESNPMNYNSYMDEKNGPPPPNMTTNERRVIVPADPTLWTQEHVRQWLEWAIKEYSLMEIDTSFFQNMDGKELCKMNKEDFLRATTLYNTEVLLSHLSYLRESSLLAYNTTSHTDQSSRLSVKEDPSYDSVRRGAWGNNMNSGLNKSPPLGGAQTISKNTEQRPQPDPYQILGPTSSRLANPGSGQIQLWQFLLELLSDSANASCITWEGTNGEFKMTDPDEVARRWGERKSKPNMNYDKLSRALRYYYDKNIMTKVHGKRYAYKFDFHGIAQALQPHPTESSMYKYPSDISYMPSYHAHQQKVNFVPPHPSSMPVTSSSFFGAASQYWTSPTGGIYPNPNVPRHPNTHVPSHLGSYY
Described as above. The settings on record: 20 mM HEPES pH 7.9, 100 mM NaCl, 1 mM DTT, 0.2 mg/mL BSA, 0.02% Triton X-100, 2% milk, 0.4 mg/mL salmon testes DNA; 1 h; temperature not stated; high values mean tight binding; double strand, one strand shown; sequences stand for … in GCCTAGCAC…GTGCTAGGTCTTGATTCGCTTGACGCTGCTG

In test [3] the target is PU.1 (endogenous, THP-1 nuclear extract) (UniProt P17947). As to the kind of experiment: nextPBM. The settings on record: 20 mM HEPES pH 7.9, 100 mM NaCl, 1 mM DTT, 0.2 mg/mL BSA, 0.02% Triton X-100, 2% milk, 0.4 mg/mL salmon testes DNA, 1 h; temperature not stated; double strand, one strand shown; sequences stand for … in GCCTAGCAC…GTGCTAGGTCTTGATTCGCTTGACGCTGCTG
In test [4] the target is T2, IRF8 (endogenous, THP-1 nuclear extract) (UniProt Q02556).
T2 sequence: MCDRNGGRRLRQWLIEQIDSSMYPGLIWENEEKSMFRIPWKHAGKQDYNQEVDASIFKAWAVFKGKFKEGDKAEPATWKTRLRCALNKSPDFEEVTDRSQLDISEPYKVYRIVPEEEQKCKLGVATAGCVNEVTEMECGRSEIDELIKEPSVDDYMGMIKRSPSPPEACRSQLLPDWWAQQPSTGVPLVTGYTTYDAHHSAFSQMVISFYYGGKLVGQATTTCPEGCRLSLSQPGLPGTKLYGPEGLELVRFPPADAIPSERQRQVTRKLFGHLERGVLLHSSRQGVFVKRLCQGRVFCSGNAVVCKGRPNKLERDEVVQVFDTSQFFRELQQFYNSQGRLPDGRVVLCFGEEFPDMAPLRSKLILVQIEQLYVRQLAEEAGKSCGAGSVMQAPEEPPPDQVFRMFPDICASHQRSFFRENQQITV
Description: nextPBM. The settings on record: 20 mM HEPES pH 7.9, 100 mM NaCl, 1 mM DTT, 0.2 mg/mL BSA, 0.02% Triton X-100, 2% milk, 0.4 mg/mL salmon testes DNA, 1 h; temperature not stated; double strand, one strand shown; sequences stand for … in GCCTAGCAC…GTGCTAGGTCTTGATTCGCTTGACGCTGCTG

The other results are listed elsewhere or left out. For some assays here: At the low end of the ranking the order means little. For some assays here: Measured with an extract: partners may take part in the binding.

AGAGGAAGGAAGTGAGTTTG: the values for the binding signal (with PU.1 (IVT); in test [1]; in test [2]) were 2.77 z-score, 2.76 z-score and 2.38 z-score, respectively.

Regarding AGGAGGAGGAAGTGGGGGGA, the results for the binding signal (in the test with PU.1 (IVT); in test [1]; in test [2]) were 4.05 z-score, 4.59 z-score and 2.67 z-score, respectively.

In the case of TTAAAGGGGAAGTTAAGTTT, the binding signal stood at 6.86 z-score with PU.1 (IVT), 6.74 z-score in test [1] and 2.73 z-score in test [2].

As to TGGAAGAGGAAGTTGGTTTT, the binding signal in the test with PU.1 (IVT) was 7.15 z-score; in test [1], 6.75 z-score; in test [2] it was 3.62 z-score.

Consider TAAAAAAGGAAGTCAATTTG, for which the figures for the binding signal (with PU.1 (IVT); in test [1]; in test [2]) were 5.7 z-score, 5.47 z-score and 2.61 z-score, respectively.

CAAAAGAGGAAGTCAAACAC: the binding signal with PU.1 (IVT) worked out at 7.73 z-score; in test [1] it was 7.19 z-score; in test [2] it was 3.71 z-score.

Regarding TGCATGAGGAAGTACTGTGA, the values for the binding signal (with PU.1 (IVT); in test [1]; in test [2]) were 5.15 z-score, 5.82 z-score and 2.27 z-score, respectively.

GAGAAGGGGAAGTGGAAGCA: the binding signal with PU.1 (IVT) was 5.1 z-score; in test [1], 6.02 z-score; in test [2], 2.52 z-score.

Consider GATAAGATGAAGTCCTCTGT, for which the binding signal with PU.1 (IVT) was 0.661 z-score; in test [1] it was 0.282 z-score; in test [2] it was -0.195 z-score.

Consider AAAAACAGGAAGAGAACCTG, for which the binding signal was 4.26 z-score with PU.1 (IVT), 5.07 z-score in test [1] and 2.61 z-score in test [2].

Turning to TCAAAGGGGAAGTGAGGCCA, the binding signal with PU.1 (IVT) was determined as 5.61 z-score; in test [1] it was 6.06 z-score; in test [2] it was 2.85 z-score.

Regarding TTACTGAGGAACTGCCAGAC, the figures for the binding signal (with PU.1 (IVT); in test [1]; in test [2]) were 1.62 z-score, 1.46 z-score and 0.464 z-score, respectively.

In the case of AAAAAGAGGAAGTCAAACTA, the binding signal in the test with PU.1 (IVT) came to 8.48 z-score; in test [1], 7.34 z-score; in test [2], 4.13 z-score.

TTGTTGAGGAAGTGGGTGTT: the binding signal was found to be 3.93 z-score in the test with PU.1 (IVT), 3.95 z-score in test [1] and 2.26 z-score in test [2].

Turning to AAAAGGAGGAAGTTGGTTGG, the binding signal in the test with PU.1 (IVT) was 7.62 z-score; in test [1], 7.22 z-score; in test [2], 4.01 z-score.

With CAAATGAGGAACTGATATTC, the binding signal is 5.98 z-score with PU.1 (IVT), 6.44 z-score in test [1] and 1.79 z-score in test [2].

As for CAAATGATGAACTGATGCGG, the binding signal with PU.1 (IVT) was -0.173 z-score; in test [1], -0.308 z-score; in test [2], 0.282 z-score.

For the sequence CCAAAGAGGAAGTCACAGTC, the binding signal stood at 6.07 z-score in the test with PU.1 (IVT), 6.51 z-score in test [1] and 2.93 z-score in test [2].

For the sequence CGAAAGGGGAAGTGCTACAC, the binding signal in the test with PU.1 (IVT) was determined as 7.07 z-score; in test [1] it was 7.13 z-score; in test [2] it was 3.08 z-score.

For AAAAAAAGGAACTGGCTAAA, the binding signal was 4.07 z-score with PU.1 (IVT), 3.95 z-score in test [1] and 1.38 z-score in test [2].

GGAAGAGGGAAGTGGAAACC: the binding signal with PU.1 (IVT) was found to be 4.06 z-score; in test [1] it was 4.47 z-score; in test [2], 2.15 z-score.

In the case of GAAGAGAGGAAGTGAAATTA, the binding signal in test [3] worked out at 5.33 z-score; with PU.1 (IVT) it was 5.03 z-score; in test [1], 5.05 z-score; in test [2], 3.29 z-score.

For the sequence GAAATGAGGAAGTGGCTGGT, the binding signal with PU.1 (IVT) came to 7.9 z-score; in test [1] it was 7.19 z-score; in test [2], 3.71 z-score.

Turning to GAAGTAGGGAAGTGAAAGAG, the binding signal with PU.1 (IVT) was 3.36 z-score; in test [1] it was 2.97 z-score; in test [2], 1.26 z-score.

With AAAATGAGGAACTGGAACTA, the binding signal stood at 6.71 z-score in the test with PU.1 (IVT), 6.94 z-score in test [1] and 3.04 z-score in test [2].

Turning to CAAATGAGGAAGTGAGACTT, the binding signal amounted to 9.42 z-score in test [4], 8.32 z-score in test [3] and 3.73 z-score in test [2].

On to ATAAGGAGGAAGTGGCTGAA, for which the binding signal in test [4] was -0.182 z-score; in test [3], 5.2 z-score; in the test with PU.1 (IVT) it was 5.13 z-score; in test [2] it was 3.22 z-score.

As to AGGGTGGGGAAGTGGCAGCT, the binding signal with PU.1 (IVT) was determined as 2.62 z-score; in test [1], 2.84 z-score; in test [2] it was 1.32 z-score.

CAAACAGGGAAGTGGATGCT: the binding signal stood at 4.22 z-score in the test with PU.1 (IVT), 4.65 z-score in test [1] and 1.99 z-score in test [2].

Take CCAGAGAGGAAGTATGCAAG: the binding signal stood at 4.11 z-score in the test with PU.1 (IVT), 4.37 z-score in test [1] and 2.48 z-score in test [2].
